The text below walks through data of the supplement of paper PMC6531468.

The other results are listed elsewhere or left out. These are enrichments in a pooled selection; single values are uncertain. Scores sum up all selected molecules that hold the word; the word was not tested alone.

Sequence of IMP3 KH1-4 (chain, as listed by the source): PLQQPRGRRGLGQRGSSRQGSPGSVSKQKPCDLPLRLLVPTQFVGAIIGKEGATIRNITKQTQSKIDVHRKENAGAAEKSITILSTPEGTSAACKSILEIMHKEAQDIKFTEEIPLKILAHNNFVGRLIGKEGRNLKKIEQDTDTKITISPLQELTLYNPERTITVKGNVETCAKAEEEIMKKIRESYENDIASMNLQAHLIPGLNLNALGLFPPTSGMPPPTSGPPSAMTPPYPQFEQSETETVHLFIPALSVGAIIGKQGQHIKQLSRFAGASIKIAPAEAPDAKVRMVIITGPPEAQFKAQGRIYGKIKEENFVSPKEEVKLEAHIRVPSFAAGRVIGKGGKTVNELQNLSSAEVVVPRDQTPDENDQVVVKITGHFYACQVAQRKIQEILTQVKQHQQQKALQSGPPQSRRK

This assay deals with IMP3 KH1-4. In words: 6-mer SELEX enrichment z-score vs GST control; IMP3 is the RNA-binding protein IGF2BP3; higher = more enriched by binding. The settings on record: construct: KH1-4 (164-579); SELEX round: R4. Here is the method:
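SELEX-seq with GST-tagged IMP3 KH1-4 (Pro164-Lys579) and an N40 RNA pool, round 4. 6-mer z-score of sequence-tag enrichment normalised to the corresponding GST SELEX round; RNA k-mers written as DNA (T for U).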
For CACGTC, the “6-mer SELEX enrichment z-score” value is -0.448.

As for GCGAGA, the “6-mer SELEX enrichment z-score” value is -0.752.

As to TTACAG, the “6-mer SELEX enrichment z-score” value worked out at 0.893.

As to CAGTAC, the “6-mer SELEX enrichment z-score” value is 0.14.

On to TCTAAT, for which the “6-mer SELEX enrichment z-score” value came out at 0.529.

Consider CGTTAA, for which the “6-mer SELEX enrichment z-score” value is -0.535.

Regarding TTCTGG, the “6-mer SELEX enrichment z-score” value turned out to be 0.01.

CATGGA: the “6-mer SELEX enrichment z-score” value is 0.696.

Regarding CCGCTA, the “6-mer SELEX enrichment z-score” value came out at 0.168.

For the sequence TTGATC, the “6-mer SELEX enrichment z-score” value worked out at 0.148.

As for AAGCCC, the “6-mer SELEX enrichment z-score” value is -1.5.

For CGGGAG, the “6-mer SELEX enrichment z-score” value was 0.096.

In the case of CCATTG, the “6-mer SELEX enrichment z-score” value amounted to 0.249.

With ATCTTT, the “6-mer SELEX enrichment z-score” value was determined as 0.681.

ACTCCT: the “6-mer SELEX enrichment z-score” value is -0.122.

As to ATTGTA, the “6-mer SELEX enrichment z-score” value came out at 0.66.

On to CGTTAG, for which the “6-mer SELEX enrichment z-score” value was -0.325.

As for CGGCTC, the “6-mer SELEX enrichment z-score” value is 0.279.

For CGTGAG, the “6-mer SELEX enrichment z-score” value is -0.703.

As for TGAGAC, the “6-mer SELEX enrichment z-score” value is -0.733.

As to AAAGGC, the “6-mer SELEX enrichment z-score” value is -0.276.

As to GTGGAC, the “6-mer SELEX enrichment z-score” value is -0.157.

On to AGTAGC, for which the “6-mer SELEX enrichment z-score” value was -0.446.

Regarding GCAGGA, the “6-mer SELEX enrichment z-score” value was determined as 0.9.

With TTACGC, the “6-mer SELEX enrichment z-score” value is 0.482.

As to CAATGC, the “6-mer SELEX enrichment z-score” value amounted to 0.026.

As to AACTTT, the “6-mer SELEX enrichment z-score” value came out at 0.719.

As to ACGGGA, the “6-mer SELEX enrichment z-score” value was determined as 0.186.

In the case of CCCAGT, the “6-mer SELEX enrichment z-score” value was -0.58.

As to TAGAAC, the “6-mer SELEX enrichment z-score” value is -0.016.

Turning to CTTAAG, the “6-mer SELEX enrichment z-score” value was -0.281.

Regarding AGTCGA, the “6-mer SELEX enrichment z-score” value came out at 0.37.

As for ATAAAC, the “6-mer SELEX enrichment z-score” value was found to be 1.41.

As to ACGAAC, the “6-mer SELEX enrichment z-score” value was -1.3.

For the sequence ATTTCC, the “6-mer SELEX enrichment z-score” value came out at 1.03.

Consider GGTCAA, for which the “6-mer SELEX enrichment z-score” value came to 0.022.

In the case of TTACTT, the “6-mer SELEX enrichment z-score” value turned out to be 0.789.

For TCCTGT, the “6-mer SELEX enrichment z-score” value came to 0.197.

For AAAGAC, the “6-mer SELEX enrichment z-score” value was -0.835.
